{"source": "paper PMC4336329", "about": "(PLoS ONE, 2015)", "note": "The whole screen tested about 310,000 compounds, of which about 2,200 (0.71%) showed an effect of 50% or more. The effect is printed as a negative number. Some of the results follow.", "data": [{"biological_target": "human ether-à-go-go-related gene (hERG) potassium channel (human, UniProt Q12809)", "sequence (Q12809 whole entry, looked up)": "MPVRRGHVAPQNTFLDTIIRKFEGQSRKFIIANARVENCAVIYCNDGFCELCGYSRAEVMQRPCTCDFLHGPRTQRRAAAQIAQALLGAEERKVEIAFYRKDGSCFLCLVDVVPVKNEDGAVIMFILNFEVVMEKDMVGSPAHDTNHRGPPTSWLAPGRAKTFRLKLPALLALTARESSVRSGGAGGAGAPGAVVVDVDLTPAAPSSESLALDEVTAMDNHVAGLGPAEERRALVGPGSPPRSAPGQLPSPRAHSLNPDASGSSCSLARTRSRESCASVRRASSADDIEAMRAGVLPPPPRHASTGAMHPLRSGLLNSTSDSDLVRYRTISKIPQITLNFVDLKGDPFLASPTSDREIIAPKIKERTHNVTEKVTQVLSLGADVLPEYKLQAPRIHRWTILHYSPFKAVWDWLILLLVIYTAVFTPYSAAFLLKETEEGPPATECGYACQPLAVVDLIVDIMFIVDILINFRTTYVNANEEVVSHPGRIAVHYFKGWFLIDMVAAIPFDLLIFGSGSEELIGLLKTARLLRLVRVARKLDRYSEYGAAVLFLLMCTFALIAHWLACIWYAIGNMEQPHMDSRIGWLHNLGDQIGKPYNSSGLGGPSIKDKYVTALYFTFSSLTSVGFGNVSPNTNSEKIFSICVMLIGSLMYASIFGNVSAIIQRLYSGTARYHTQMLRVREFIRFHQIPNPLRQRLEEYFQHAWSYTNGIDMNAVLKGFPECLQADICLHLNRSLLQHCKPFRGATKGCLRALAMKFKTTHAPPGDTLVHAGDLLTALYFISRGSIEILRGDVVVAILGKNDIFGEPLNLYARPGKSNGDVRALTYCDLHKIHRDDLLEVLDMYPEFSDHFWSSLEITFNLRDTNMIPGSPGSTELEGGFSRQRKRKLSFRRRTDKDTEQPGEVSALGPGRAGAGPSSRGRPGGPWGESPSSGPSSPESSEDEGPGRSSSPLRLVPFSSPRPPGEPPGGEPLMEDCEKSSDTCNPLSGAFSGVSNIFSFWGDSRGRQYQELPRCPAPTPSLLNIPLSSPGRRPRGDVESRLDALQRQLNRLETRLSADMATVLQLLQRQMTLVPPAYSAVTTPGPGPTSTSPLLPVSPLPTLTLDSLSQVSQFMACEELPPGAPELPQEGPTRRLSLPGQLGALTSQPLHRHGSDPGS", "test": "primary screen, population patch clamp on CHO cells stably expressing hERG", "units": {"hERG current change (%, negative = inhibition) at 1uM": "%"}, "values": [{"smiles": "Cn1c(CNC(=O)c2ccccc2F)nnc1SCC(=O)Nc1nnc(C2CC2)s1", "hERG current change (%, negative = inhibition) at 1uM": 5.25}, {"smiles": "CCOC(=O)C[C@H]1c2cc(F)ccc2S(=O)(=O)N1C1CCCCC1", "hERG current change (%, negative = inhibition) at 1uM": 9.65}, {"smiles": "O=C(O)c1nn(-c2ccc(Cl)cc2)ccc1=O", "hERG current change (%, negative = inhibition) at 1uM": 6.99}, {"smiles": "N#CC(C#SN)=C1CCCCC1", "hERG current change (%, negative = inhibition) at 1uM": 8.66}, {"smiles": "Cc1ccc(C)c(C(=O)CSc2nnnn2C(C)C)c1", "hERG current change (%, negative = inhibition) at 1uM": 13.1}, {"smiles": "CCOC(=O)c1c(C)nc2sc3c(c2c1-c1ccc(OC)cc1)NC(c1ccccc1)NC3=O", "note": "(stereo not shown)", "hERG current change (%, negative = inhibition) at 1uM": 8.06}, {"smiles": "OCCOCCn1c(C(CO)Nc2nc(-c3cccc(Br)c3)cs2)nc2ccccc21", "note": "(stereo not shown)", "hERG current change (%, negative = inhibition) at 1uM": 10.9}, {"smiles": "CNS(=O)(=O)c1cn(CC(=O)NCc2ccc(OC)cc2)cc1S(=O)(=O)NC", "hERG current change (%, negative = inhibition) at 1uM": 7.28}, {"smiles": "O=C(O)CC(NC(=O)/C(=C/c1ccccc1)NC(=O)c1ccccc1)c1ccccc1", "note": "(stereo not shown)", "hERG current change (%, negative = inhibition) at 1uM": 14.2}, {"smiles": "Cc1ccc(C(=O)Nc2cc(C(C)C)c(O)c(C(C)C)c2)cc1", "hERG current change (%, negative = inhibition) at 1uM": 9.48}, {"smiles": "COCCn1c(C)cc(C(=O)CSc2nc3ccccc3c(=O)[nH]2)c1C", "hERG current change (%, negative = inhibition) at 1uM": 6.04}, {"smiles": "CCC(=O)NC(O)C(=O)c1ccc(C)cc1", "note": "(stereo not shown)", "hERG current change (%, negative = inhibition) at 1uM": 8.13}, {"smiles": "COc1ccc(-c2nn(Cc3ccccc3)cc2C(=O)NC2CC2)cc1OC", "hERG current change (%, negative = inhibition) at 1uM": 2.07}, {"smiles": "O/N=C(\\C[n+]1ccccc1)c1ccc(Br)cc1.[Br-]", "hERG current change (%, negative = inhibition) at 1uM": 10.5}, {"smiles": "O=C1c2ccccc2C(=O)N1Cc1nc(-c2ccccn2)no1", "hERG current change (%, negative = inhibition) at 1uM": 7.43}, {"smiles": "O=C(N/N=C/c1sc(N2CCOCC2)nc1-c1ccccc1)c1ccccc1O", "hERG current change (%, negative = inhibition) at 1uM": 8.51}, {"smiles": "CC[C@H](C)/C=C(C)/C=C/C(=O)Cc1cc(O)c(C)c(O)c1C=O", "hERG current change (%, negative = inhibition) at 1uM": -3.56}, {"smiles": "CCOc1cc(C2NCc3ccccc3-n3cccc32)ccc1OC.Cl", "note": "(stereo not shown)", "hERG current change (%, negative = inhibition) at 1uM": 5.55}, {"smiles": "COC(=O)c1ccc(NC(=O)CN(C2CCCCC2)S(C)(=O)=O)cc1", "hERG current change (%, negative = inhibition) at 1uM": 1.75}, {"smiles": "NC(=O)C1(N2CCCCC2)CCN(C(=O)c2ccc(C#CC3(O)CCCCC3)cc2)CC1", "hERG current change (%, negative = inhibition) at 1uM": 3.69}, {"smiles": "CCN1C(=O)C2C(C1=O)N1C(c3ccccc3)C3C(=O)N(CC)C(=O)C3N1C2c1ccccc1", "note": "(stereo not shown)", "hERG current change (%, negative = inhibition) at 1uM": 14.7}, {"smiles": "CCCNC(=O)NC(=O)COC(=O)CC(NC(N)=O)c1ccc(Cl)cc1", "note": "(stereo not shown)", "hERG current change (%, negative = inhibition) at 1uM": 12.9}, {"smiles": "Cc1cc(C)cc(-n2nnc(C(=O)NCc3ccc(Cl)cc3)c2N)c1", "hERG current change (%, negative = inhibition) at 1uM": 6.06}, {"smiles": "CCc1nc2oc3ccccc3c(=O)c2c(=O)n1Cc1ccc(OC)cc1", "hERG current change (%, negative = inhibition) at 1uM": -6.12}, {"smiles": "COc1ccc(C(CNC(=O)C2COc3ccccc3O2)N2CCCC2)cc1", "note": "(stereo not shown)", "hERG current change (%, negative = inhibition) at 1uM": -0.312}, {"smiles": "O=C(Cc1ccc(Cl)cc1)N/N=C/c1ccccc1", "hERG current change (%, negative = inhibition) at 1uM": 17.2}, {"smiles": "O=C(COC(=O)/C=C/c1cccc(F)c1)Nc1ccc2[nH]c(=O)[nH]c2c1", "hERG current change (%, negative = inhibition) at 1uM": 14.8}, {"smiles": "N#CCCN(C(=O)COC(=O)C1CCN(S(=O)(=O)c2cccs2)CC1)c1ccccc1", "hERG current change (%, negative = inhibition) at 1uM": -1.47}, {"smiles": "Cc1ccc(S(=O)(=O)Nc2nnc(CC(C)(C)C)s2)cc1", "hERG current change (%, negative = inhibition) at 1uM": -0.457}, {"smiles": "CC(C)Oc1ccc(C(=O)NNC(=O)c2ccccc2C(=O)O)cc1", "hERG current change (%, negative = inhibition) at 1uM": 7.89}, {"smiles": "CNc1c(NS(=O)(=O)c2cc(NC(C)=O)ccc2C)c(=O)oc2ccccc12", "hERG current change (%, negative = inhibition) at 1uM": 12.4}, {"smiles": "CS(=O)(=O)N(CC(=O)NC1CC1)C1CCCCC1", "hERG current change (%, negative = inhibition) at 1uM": 11.6}, {"smiles": "Cc1cc(-c2n[nH]c(=S)n2/N=C/c2ccc(Br)s2)n[nH]1", "hERG current change (%, negative = inhibition) at 1uM": 19.4}, {"smiles": "COc1ccc(OCc2cc(C(=O)NCC3CCOCC3)no2)c(Cl)c1", "hERG current change (%, negative = inhibition) at 1uM": 23.8}, {"smiles": "Cn1c(CNC(=O)Cc2ccc3c(c2)OCO3)nnc1SCc1ccccc1", "hERG current change (%, negative = inhibition) at 1uM": 9.16}, {"smiles": "N#CC(c1ccc(Cl)cc1)c1ncc(C(F)(F)F)cc1Cl", "note": "(stereo not shown)", "hERG current change (%, negative = inhibition) at 1uM": 10.5}, {"smiles": "CCn1c(SCC(=O)N(C)C2CCCCC2)nc2cc(S(N)(=O)=O)ccc21", "hERG current change (%, negative = inhibition) at 1uM": 5.03}, {"smiles": "O=C(Cc1ncn[nH]1)NCCc1ccccc1", "hERG current change (%, negative = inhibition) at 1uM": 4.38}, {"smiles": "Cc1cc(C)cc(NC(=O)COC(=O)COc2cccc3c2OC(C)(C)C3)c1", "hERG current change (%, negative = inhibition) at 1uM": 10.1}, {"smiles": "Nc1c(C(=O)NCc2ccc3c(c2)OCO3)c2nc3ccccc3nc2n1CCCN1CCOCC1", "hERG current change (%, negative = inhibition) at 1uM": 8.36}, {"smiles": "Cc1ccc(C(=O)N2CCc3ccccc32)cc1NC(=O)c1ccco1", "hERG current change (%, negative = inhibition) at 1uM": -11.8}, {"smiles": "Cc1cc(C)cc(NC(=S)NCCCO)c1", "hERG current change (%, negative = inhibition) at 1uM": 3.99}, {"smiles": "COc1cc2c(=O)n(Cc3ccccc3)c(=O)n(CC(=O)NCC3CCCO3)c2cc1OC", "note": "(stereo not shown)", "hERG current change (%, negative = inhibition) at 1uM": -14.4}]}]}
